Here are results for 37 sequences from publication PMC5892938.

The other results are listed elsewhere or left out. At the low end of the ranking the order means little.

The experiment concerns the target GST-SBP-SLBP (stem-loop binding protein) (UniProt Q14493). Description: targeted RNA Bind-n-Seq.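 Note: DESeq read counts versus GST-SBP nonspecific binding control pulldown.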 To be noted: RBNS binding buffer: 25 mM Tris pH 7.5, 150 mM KCl, 3 mM MgCl2, 0.1% Tween, 0.5 mg/mL BSA, 1 mM DTT; 27 nM protein, 750 pM RNA pool; temperature not stated; high values mean tight binding.
With “GGUCACGUCUCAAUCAACUCUUCUUCCAGGGAAACCCCUGGUUAAUUCAACAGCUCGCAGUCAAG”, the binding signal (log2 fold change) amounted to 0.132.
For “GGUCACGUCUCAAUCAACUCUUCGCCCAGGGAAAUCCCUGGUAUAUUCAACAGCUCGCAGUCAAG” the value was 0.0289; for “GGUCACGUCUCAAUCAACUCAUCUUCAGGAGUUUACUCCUGUUUAUUCAACAGCUCGCAGUCAAG”, -0.0232; for “GGUCACGUCUCAAUCAACUCAUCUCCAGGAGUUUCCUCCUGCAAUUUCAACAGCUCGCAGUCAAG”, -0.0879.
For “GGUCACGUCUCAAUCAACUCUUUUCCCAGGGAAAACCCUGGUUUAUUCAACAGCUCGCAGUCAAG” the value was 0.179; for “GGUCACGUCUCAAUCAACUCAUUUUCCAGGGAAAACCCUGGUUUUCUCAACAGCUCGCAGUCAAG”, -0.0433.
Take “GGUCACGUCUCAAUCAACUCAUCUUCCAGGGAAAGCCCUGGUAUAUUCAACAGCUCGCAGUCAAG”: the binding signal (log2 fold change) came to 0.154.
Consider “GGUCACGUCUCAAUCAACUCAUUCGAGGGGGGGAAAACCCCUUUGCCCUCAUAAUCAACAGCUCGCAGUCAAG”, for which the binding signal (log2 fold change) is -0.455.
For “GGUCACGUCUCAAUCAACUCAUCGCCCAGGGAAAACCCUGGUUUUUUCAACAGCUCGCAGUCAAG” the value was 0.111; for “GGUCACGUCUCAAUCAACUCUAUCUCAGGAGUUUACUCCUGCAUAUUCAACAGCUCGCAGUCAAG”, 0.0675.
Turning to “GGUCACGUCUCAAUCAACUCAAGUCCCAGGGAAAGCCCUGGCAAAUUCAACAGCUCGCAGUCAAG”, the binding signal (log2 fold change) is -0.0212.
The same measure for “GGUCACGUCUCAAUCAACUCAUCGUCAGGAGUUUACUCCUGUUAAUUCAACAGCUCGCAGUCAAG”: -0.213; for “GGUCACGUCUCAAUCAACUCUUUUCCCAGGGAAACCCCUGGUUAAUUCAACAGCUCGCAGUCAAG”: -0.147; for “GGUCACGUCUCAAUCAACUCUAUCCCCAGGGAAAGCCCUGGUAUUCUCAACAGCUCGCAGUCAAG”: -0.126.
As to “GGUCACGUCUCAAUCAACUCAACUUCAGGAGUUUGCUCCUGCAAUUUCAACAGCUCGCAGUCAAG”, the binding signal (log2 fold change) is -0.177.
For “GGUCACGUCUCAAUCAACUCUAGUCCCAGGGAAAACCCUGGCAAUUUCAACAGCUCGCAGUCAAG” the value was 0.266; for “GGUCACGUCUCAAUCAACUCAGUUUCAGGAGUUUACUCCUGCAUUCUCAACAGCUCGCAGUCAAG”, -0.139.
For “GGUCACGUCUCAAUCAACUCUUCCUCCAGGGAAAACCCUGGCAUAUUCAACAGCUCGCAGUCAAG” the value was -0.0616; for “GGUCACGUCUCAAUCAACUCUAUCCCCAGGGAAAACCCUGGCAAACUCAACAGCUCGCAGUCAAG”, -0.14.
The same measure for “GGUCACGUCUCAAUCAACUCCCUAGAGGGGGGGAAAACCCCUUUGCCCUCGAAUUCAACAGCUCGCAGUCAAG”: 0.182; for “GGUCACGUCUCAAUCAACUCUAUUCCAGGAGUUUACUCCUGCUUACUCAACAGCUCGCAGUCAAG”: -0.0547.
Take “GGUCACGUCUCAAUCAACUCCCAAAGGUUUUUCUUAGAACCACCCAUCAACAGCUCGCAGUCAAG”: the binding signal (log2 fold change) amounted to 0.299.
For “GGUCACGUCUCAAUCAACUCAGUCUCCAGGGAAAGCCCUGGCUAUCUCAACAGCUCGCAGUCAAG” the value was -0.286.
For “GGUCACGUCUCAAUCAACUCAUUUGCAGGAGUUUACUCCUGGUAUUUCAACAGCUCGCAGUCAAG” the value was 0.042; for “GGUCACGUCUCAAUCAACUCUUUUCCCAGGGAAAGCCCUGGCAAUGUCAACAGCUCGCAGUCAAG”, 0.2; for “GGUCACGUCUCAAUCAACUCCUCGGAGGGGGGGAAAACCCCUUUACCCUCACAAUCAACAGCUCGCAGUCAAG”, -0.433.
“GGUCACGUCUCAAUCAACUCUACAGAGGGGGGGAAAACCCCUUUUCCCUCAACAUCAACAGCUCGCAGUCAAG”: the binding signal (log2 fold change) came out at 0.191.
Take “GGUCACGUCUCAAUCAACUCUAGUCCAGGAGUUUUCUCCUGUUAUCUCAACAGCUCGCAGUCAAG”: the binding signal (log2 fold change) was -0.224.
As to “GGUCACGUCUCAAUCAACUCAACUCCCAGGGAAACCCCUGGUAAUUUCAACAGCUCGCAGUCAAG”, the binding signal (log2 fold change) was -0.0604.
For “GGUCACGUCUCAAUCAACUCUCCCGAGGGGGGGAAAACCCCUUUACCCUCAUCCUCAACAGCUCGCAGUCAAG” the value was -0.469; for “GGUCACGUCUCAAUCAACUCUUUCUCCAGGGAAAACCCUGGCUAUUUCAACAGCUCGCAGUCAAG”, 0.0586.
With “GGUCACGUCUCAAUCAACUCGUUUUCAGGAGUUUUCUCCUGUUAUUUCAACAGCUCGCAGUCAAG”, the binding signal (log2 fold change) amounted to 0.0599.
For “GGUCACGUCUCAAUCAACUCAUUUUCCAGGGAAAGCCCUGGCUUUUUCAACAGCUCGCAGUCAAG” the value was -0.172.
Take “GGUCACGUCUCAAUCAACUCAUUCGAGGGGGGGAAAACCCCUUUGCCCUCAACAUCAACAGCUCGCAGUCAAG”: the binding signal (log2 fold change) was -0.295.
Turning to “GGUCACGUCUCAAUCAACUCAUUCGCAGGAGUUUACUCCUGGUAUUUCAACAGCUCGCAGUCAAG”, the binding signal (log2 fold change) was -0.142.
As for “GGUCACGUCUCAAUCAACUCAUUUCCAGGAGUUUCCUCCUGCAAACUCAACAGCUCGCAGUCAAG”, the binding signal (log2 fold change) is -0.168.
The same measure for “GGUCACGUCUCAAUCAACUCUAUGGCAGGAGUUUUCUCCUGGAUAUUCAACAGCUCGCAGUCAAG”: -0.0377.
